# Measured values: PubChem BioAssay (NCATS)
# The inconclusive results got no clear call from the source; some entries with a clear call stand among them for comparison. For part of these data: No potency is given beside an inconclusive call; the fits are too rough. The source made the active and inactive calls. Calls follow the shape of the dose curve; as a rule, active = well fitted curve in the direction sought with a large enough effect; inconclusive = small, poorly fitted or top-dose-only effect, or another doubt; inactive = no such curve, though single readings can be large; an effect the other way counts as inactive or inconclusive.
# Experiments:
# [1] = NS1 protein of Zika virus - qHTS assay to identify small molecule inhibitors in human HEK 293 cells (AID 1347053); also: nearly all actives have a fitted effect of over 55% in size
# In short: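 In this cell-based screen, HEK 293 cultures received compound for one hour before Zika MR766 at MOI = 0.5. NS1 was quantified 24 hours later by TR-FRET, normalized to virus-free wells and infected wells.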
# [2] = qHTS of pediatric cancer cell lines to identify multiple opportunities for drug repurposing: Primary screen for TC32 cells (AID 1347089); also: nearly all actives have a fitted effect of over 60% in size
# In short: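 qHTS, TC32, 48 h drug treatment, CellTiter-Glo luminescence as a proxy for metabolically active cells; primary top concentration 46 µM (MIPE 11-pt, NPC 8-pt); confirmatory 11-pt.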
# [3] = qHTS of pediatric cancer cell lines to identify multiple opportunities for drug repurposing: Primary screen for NB-EBc1 cells (AID 1347095)
# In short: (§1)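 Plated cells (500-1,000 per well, growth media) were allowed to settle for 5 hours, treated with compound dilutions for 48 hours, then lysed with CellTiter-Glo for 15 min at room temperature before luminescence reading.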
# [4] = qHTS of pediatric cancer cell lines to identify multiple opportunities for drug repurposing: Primary screen for U-2 OS cells (AID 1347096); also: nearly all actives have a fitted effect of over 50% in size
# In short: (§2)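 Cells (500-1,000/well) rested 5 h, then received compounds for 48 h; metabolically active cells were measured by CellTiter-Glo luminescence. Final concentrations spanned up to 46 µM (MIPE, 11-point) or 0.59 nM-46 µM (NPC, 8-point) in primary screens, 11-point in follow-ups.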
# [5] = qHTS of pediatric cancer cell lines to identify multiple opportunities for drug repurposing: Primary screen for Rh30 cells (AID 1347107); also: nearly all actives have a fitted effect of over 75% in size
# In short: as §2
# [6] = Quantitative High-Throughput drug screen in 47 multiple myeloma cell lines against the NCATS MIPE library collection: ARD_JJKsccE7 cell viability assay (AID 1918929); details: ARD myeloma cell line viability, CellTiter-Glo, 48 h; viability: at 45.8 µM (top of the series)
# In short: (§3)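 qHTS of the MIPE 4.0 collection: 500 myeloma cells/well, 48 h drug exposure at 37C in 5% CO2, then CellTiter-Glo for 5 min at room temperature before luminescence reading.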
# [7] = Quantitative High-Throughput drug screen in 47 multiple myeloma cell lines against the NCATS MIPE library collection: KHM11_PLB cell viability assay (AID 1918962); details: KHM11 myeloma cell viability, CellTiter-Glo ATP luminescence, 48 h; series mostly up to 45.8 µM; also: nearly all actives have a fitted effect of over 35% in size
# In short: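 Approved and investigational drugs from MIPE 4.0 were added by pin tool to 500 cells per well. After 48 hours at 37C, ATP-based CellTiter-Glo luminescence indicated remaining viability.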
# [8] = Quantitative High-Throughput drug screen in 47 multiple myeloma cell lines against the NCATS MIPE library collection: KMS27_JCRB cell viability assay (AID 1918970); details: KMS27 myeloma cells, CellTiter-Glo ATP viability, 48 h; viability (% of DMSO): at 45.8 µM (top of the series); also: nearly all actives have a fitted effect of over 30% in size
# In short: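 ATP-based viability (CellTiter-Glo luminescence) is measured in cells treated 48 h with approved and investigational drugs at 37 °C. Controls are DMSO-only wells for full viability and media-only wells for none.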
# [9] = Quantitative High-Throughput drug screen in 47 multiple myeloma cell lines against the NCATS MIPE library collection: MOLP8_DSMZ cell viability assay (AID 1918977); also: nearly all actives have a fitted effect of over 45% in size
# In short: (§4)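 ATP-based luminescence (CellTiter-Glo, 5 min RT incubation) quantified surviving cells following two days' treatment with MIPE 4.0 agents at 37 °C, 5% CO2.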
# [10] = Quantitative High-Throughput drug screen in 47 multiple myeloma cell lines against the NCATS MIPE library collection: OCIMY1_PLB cell viability assay (AID 1918979); also: nearly all actives have a fitted effect of over 35% in size
# In short: as §4
# [11] = Quantitative High-Throughput drug screen in 47 multiple myeloma cell lines against the NCATS MIPE library collection: OCIMY5_PLB cell viability assay (AID 1918988); also: nearly all actives have a fitted effect of over 65% in size
# In short: as §4
# [12] = Quantitative High-Throughput drug screen in 47 multiple myeloma cell lines against the NCATS MIPE library collection: UTMC2_PLB cell viability assay (AID 1919868); details: CellTiter-Glo ATP luminescence, 48 h; series mostly up to 45.8 µM; also: nearly all actives have a fitted effect of over 55% in size
# In short: as §4
# [13] = test system: MCC-26; test: qHTS assay to identify novel small-molecules to repurpose for Merkel cell carcinoma treatment (AID 1296009); details: MCC and control cell lines, CellTiter-Glo viability, 72 h; activity change, negative = cytotoxicity: at 46 µM (top of the series); also: nearly all actives have a fitted effect of over 60% in size
# In short: (§5)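 Cell viability measured by CellTiter-Glo following 72 hr compound treatment at 37 degree celsius, with NPC and MIPE libraries tested in 8- and 11-point concentration series.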
# [14] = biological target: Phospholipid hydroperoxide glutathione peroxidase GPX4 (Homo sapiens) (UniProt P36969); test: Primary qHTS Assay for Inhibitors of Recombinant Selenoprotein Glutathione Peroxidase 4 (GPX4) (AID 1845192); also: nearly all actives have a fitted effect of over 65% in size
# UniProt P36969, sequence (P36969 whole entry, looked up): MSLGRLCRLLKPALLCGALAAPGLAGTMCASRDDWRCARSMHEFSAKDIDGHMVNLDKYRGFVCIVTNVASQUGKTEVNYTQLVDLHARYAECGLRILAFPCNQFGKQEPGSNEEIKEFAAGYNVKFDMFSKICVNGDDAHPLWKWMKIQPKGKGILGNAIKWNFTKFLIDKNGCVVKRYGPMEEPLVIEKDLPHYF
# In short: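 NADPH consumption followed by fluorescence at 340/450 nm, t=0 and after 15 min at room temperature. Reaction started with cumene hydroperoxide (0.5 mM final) after 30 min compound–GPX4 preincubation; final 200 nM GPX4, 100 nM GR, 1 mM GSH, 0.5 mM NADPH.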
# [15] = qHTS of pediatric cancer cell lines to identify multiple opportunities for drug repurposing: Primary screen for MG 63 (6-TG R) cells (AID 1347105); details: MG 63 (6-TG R) viability, CellTiter-Glo, 48 h; activity change, negative = cytotoxic: at 46 µM (top of the series); also: nearly all actives have a fitted effect of over 50% in size
# In short: as §1
# [16] = Quantitative High-Throughput drug screen in 47 multiple myeloma cell lines against the NCATS MIPE library collection: EJM_DSMZ cell viability assay (AID 1918926; also: nearly all actives have a fitted effect of over 30% in size)
# In short: as §3
# [17] = test system: MKL-1; test: qHTS assay to identify novel small-molecules to repurpose for Merkel cell carcinoma treatment (AID 1296009); details: MCC and control cell lines, CellTiter-Glo viability, 72 h; activity change, negative = cytotoxicity: at 46 µM (top of the series); also: nearly all actives have a fitted effect of over 60% in size
# In short: as §5
# [18] = Quantitative High-Throughput drug screen in 47 multiple myeloma cell lines against the NCATS MIPE library collection: KMS12PE_JCRB cell viability assay (AID 1918972); also: nearly all actives have a fitted effect of over 30% in size
# In short: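 Inhibition of cell viability is measured here. Each line was plated at 500 cells per well, treated with MIPE 4.0 drugs, kept 48 hours at 37C, then assayed for ATP content by CellTiter-Glo luminescence.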
# [19] = qHTS of pediatric cancer cell lines to identify multiple opportunities for drug repurposing: Primary screen for SK-N-SH cells (AID 1347098); also: nearly all actives have a fitted effect of over 65% in size
# In short: as §2
# [20] = Quantitative High-Throughput drug screen in 47 multiple myeloma cell lines against the NCATS MIPE library collection: KMS20_JCRB cell viability assay (AID 1918973); details: CellTiter-Glo ATP, 48 h; viability (% of DMSO): at 45.8 µM (top of the series); also: nearly all actives have a fitted effect of over 45% in size
# In short: as §3
# Potency is read from the fitted curve at half-maximal effect; tags tell the direction and shape of the fitted curve.
smiles,measurement,setting,value
CC[C@@]1([C@@H]2O[C@@H]([C@H]3O[C@@](O)(CO)[C@H](C)C[C@H]3C)C[C@H]2C)CC[C@H]([C@]2(C)CC[C@]3(C[C@H](O)[C@@H](C)[C@@H]([C@@H](C)[C@@H](OC)[C@H](C)C(=O)O)O3)O2)O1,Potency,[1],active: 1.29 µM
same,Potency,[2],active: 1.61 µM
same,Potency,[3],active: 0.182 µM
same,Potency,[4],"inconclusive [cytotoxic, partial curve]"
same,Potency,[5],"inconclusive [cytotoxic, partial curve]"
same,Potency,[6],active: 0.911 µM
same,Potency,[7],active: 0.512 µM
same,Potency,[8],"inconclusive [cytotoxic, partial curve, poor fit]"
same,Potency,[9],active: 0.204 µM
same,Potency,[10],"inconclusive [cytotoxic, partial curve, poor fit]"
same,Potency,[11],active: 0.102 µM
same,Potency,[12],active: 0.182 µM
same,Potency,[13],inactive
Cc1ccc(C(=O)Nc2ccc(Oc3cc4cnn(C)c4cc3-c3cn[nH]c3)c(F)c2)c(=O)n1-c1ccc(F)cc1,Potency,[14],"inconclusive [inhibitor, partial curve, poor fit]"
Cc1cc(Nc2ncnc3ccc(-c4ccc(CNCCS(C)(=O)=O)o4)cc23)ccc1Oc1ccn2ncnc2c1,Potency,[2],"inconclusive [cytotoxic, single point]"
same,Potency,[3],active: 4.18 µM
same,Potency,[4],"inconclusive [cytotoxic, single point]"
same,Potency,[15],active: 18.7 µM
same,Potency,[5],"inconclusive [cytotoxic, partial curve]"
same,Potency,[14],"inconclusive [inhibitor, partial curve, poor fit]"
same,Potency,[16],active: 20.9 µM
same,Potency,[7],active: 6.62 µM
same,Potency,[8],active: 2.64 µM
same,Potency,[9],active: 20.9 µM
same,Potency,[10],"inconclusive [cytotoxic, single point]"
same,Potency,[12],active: 6.62 µM
same,Potency,[17],active: 14.8 µM
CCN(CCCOc1ccc2c(Nc3cc(CC(=O)Nc4cccc(F)c4)[nH]n3)ncnc2c1)CCOP(=O)(O)O,Potency,[14],"inconclusive [inhibitor, partial curve]"
O=c1[nH]c(=O)n([C@H]2C[C@H](O)[C@@H](CO)O2)cc1F,Potency,[2],active: 0.264 µM
same,Potency,[5],"inconclusive [cytotoxic, full curve]"
same,Potency,[13],"inconclusive [inhibitor, partial curve, poor fit]"
same,Potency,[17],"inconclusive [inhibitor, full curve]"
CC(C)c1cc(-c2n[nH]c(=O)n2-c2ccc3c(ccn3C)c2)c(O)cc1O,Potency,[3],active: 0.0935 µM
same,Potency,[4],"inconclusive [cytotoxic, full curve, poor fit]"
same,Potency,[15],"inconclusive [cytotoxic, full curve]"
same,Potency,[5],inactive
same,Potency,[14],"inconclusive [inhibitor, partial curve, poor fit]"
same,Potency,[16],"inconclusive [cytotoxic, full curve]"
same,Potency,[6],active: 0.0166 µM
same,Potency,[7],"inconclusive [cytotoxic, full curve]"
same,Potency,[18],active: 0.0332 µM
same,Potency,[9],"inconclusive [cytotoxic, full curve, poor fit]"
same,Potency,[11],"inconclusive [cytotoxic, full curve, poor fit]"
same,Potency,[13],"inconclusive [inhibitor, full curve]"
same,Potency,[17],"inconclusive [inhibitor, full curve]"
Cc1cc(-c2nc3cc(F)ccc3s2)ccc1NC(=O)[C@@H](N)CCCCN,Potency,[14],"inconclusive [inhibitor, single point]"
Oc1ccc(Cl)cc1Cc1cc(Cl)ccc1O,Potency,[2],"inconclusive [cytotoxic, single point]"
same,Potency,[3],"inconclusive [cytotoxic, single point]"
same,Potency,[4],"inconclusive [cytotoxic, single point]"
same,Potency,[15],active: 16.8 µM
same,Potency,[5],"inconclusive [cytotoxic, single point]"
same,Potency,[17],active: 23.7 µM
COC(=O)C1=C(C)NC(C)=C(C(=O)O[C@@H]2CCCN(Cc3ccccc3)C2)[C@@H]1c1cccc([N+](=O)[O-])c1,Potency,[3],"inconclusive [cytotoxic, single point]"
same,Potency,[4],"inconclusive [cytotoxic, partial curve, poor fit]"
same,Potency,[15],"inconclusive [cytotoxic, single point]"
CC(=O)[C@H]1CC[C@H]2[C@@H]3CCC4=CC(=O)CC[C@]4(C)[C@H]3CC[C@]12C,Potency,[1],"inconclusive [inhibitor, single point]"
same,Potency,[19],active: 12.1 µM
same,Potency,[15],active: 11.8 µM
same,Potency,[5],"inconclusive [cytotoxic, full curve]"
same,Potency,[16],"inconclusive [cytotoxic, partial curve, poor fit]"
same,Potency,[6],"inconclusive [rising, full curve]"
same,Potency,[7],"inconclusive [cytotoxic, full curve, poor fit]"
same,Potency,[8],"inconclusive [rising, full curve, poor fit]"
same,Potency,[18],"inconclusive [rising, full curve]"
same,Potency,[20],"inconclusive [cytotoxic, partial curve, poor fit]"
same,Potency,[9],"inconclusive [cytotoxic, partial curve, poor fit]"
same,Potency,[10],"inconclusive [rising, full curve]"
same,Potency,[11],"inconclusive [cytotoxic, partial curve, poor fit]"
same,Potency,[12],"inconclusive [cytotoxic, partial curve, poor fit]"
